From PubChem BioAssay (NCATS)
Inconclusive results, whose numbers are uncertain, are shown with a selection of clear calls. For some assays here: Potencies of inconclusive entries are left out as doubtful fits. The source made the active and inactive calls. Unless noted, calls come from the whole dose curve; as a rule, active = well fitted curve in the direction sought with a large enough effect; inconclusive = small, poorly fitted or top-dose-only effect, or another doubt; inactive = no such curve, though single readings can be large; an effect the other way counts as inactive or inconclusive.

Legend:
[1] = tested on: Zika virus NS2B-NS3 protease; test: Primary screen GU AMC qHTS for Zika virus inhibitors (AID 1347154); note: nearly all actives have a fitted effect of over 70% in size
Summary of the method: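 Unlinked Zika NS2B hydrophilic domain–NS3 protease complex at 25 nM in 10 mM Tris-HCl pH 8.0, 0.01% Tween 20, with an AMC peptide substrate. Fluorescence change (340/450 nm) over 15 min at room temperature, normalized to controls, fitted to 4-parameter Hill.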

7G8 = test: qHTS profiling for inhibitors of Plasmodium falciparum proliferation (AID 504749); note: nearly all actives have a fitted effect of over 60% in size; details: P. falciparum in erythrocytes, SYBR Green DNA, 72 h; series mostly up to 28.7 µM
Summary of the method: (§1)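 SYBR Green fluorescence (ex 485 nm, em 535 nm) reports parasite DNA after 72 h compound exposure of infected red cells at 0.3% parasitemia, 2.5% hematocrit; signal normalized to 0.29 uM artemisinin and vehicle wells.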

[2] = Quantitative High-Throughput drug screen in 47 multiple myeloma cell lines against the NCATS MIPE library collection: ARD_JJKsccE7 cell viability assay (AID 1918929); details: ARD myeloma cell line viability, CellTiter-Glo, 48 h; viability: at 45.8 µM (top of the series)
Summary of the method: (§2)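 CellTiter-Glo luminescence (ATP) after 48 h compound exposure, 37C/5% CO2; 500 cells/well; MIPE 4.0 approved/investigational drugs pinned in; DMSO = 100%, media only = 0% viability.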

[3] = Quantitative High-Throughput drug screen in 47 multiple myeloma cell lines against the NCATS MIPE library collection: KMS12PE_JCRB cell viability assay (AID 1918972); note: nearly all actives have a fitted effect of over 30% in size
Summary of the method: as §2

[4] = Quantitative High-Throughput drug screen in 47 multiple myeloma cell lines against the NCATS MIPE library collection: NCIH929_DSMZ cell viability assay (AID 1918978); details: NCI-H929 myeloma viability, CellTiter-Glo ATP, 48 h; series mostly up to 45.8 µM; note: nearly all actives have a fitted effect of over 35% in size
Summary of the method: (§3)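 500 cells/well; MIPE 4.0 drugs pin-transferred; 48 h, 37C, 5% CO2. CellTiter-Glo, 5 min RT, luminescence. Controls: DMSO 100%, media 0%.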

[5] = Quantitative High-Throughput drug screen in 47 multiple myeloma cell lines against the NCATS MIPE library collection: SKMM1_PLB cell viability assay (AID 1919863); details: SKMM1 myeloma viability, CellTiter-Glo ATP, 48 h; viability: active compounds read low; note: nearly all actives have a fitted effect of over 35% in size
Summary of the method: as §3

[6] = Quantitative High-Throughput drug screen in 47 multiple myeloma cell lines against the NCATS MIPE library collection: MM1R_ATCC cell viability assay (AID 1918981); note: nearly all actives have a fitted effect of over 35% in size
Summary of the method: as §3

[7] = Quantitative High-Throughput drug screen in 47 multiple myeloma cell lines against the NCATS MIPE library collection: KMS28BM_JCRB cell viability assay (AID 1919874); note: nearly all actives have a fitted effect of over 35% in size
Summary of the method: as §3

[8] = qHTS of pediatric cancer cell lines to identify multiple opportunities for drug repurposing: Confirmatory screen for BT-12 cells (AID 1347112); note: nearly all actives have a fitted effect of over 55% in size
Summary of the method: (§4)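 Viability after 48 h compound treatment at 37C, 500-1,000 cells/well, read as ATP luminescence with CellTiter-Glo. Primary screens used 11-point (MIPE, 0.78 nM-46 µM) or 8-point (NPC, 0.59 nM-46 µM) final concentrations; follow-up screens used 11-point dilutions.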

[9] = qHTS of pediatric cancer cell lines to identify multiple opportunities for drug repurposing: Confirmatory screen for NB-EBc1 cells (AID 1347115); details: NB-EBc1 neuroblastoma cells, viability (cytotoxicity); series mostly up to 45.9 µM;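 note: cells exposed to compound for 48 h before the viability read; nearly all actives have a fitted effect of over 45% in size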
Summary of the method: as §4

[10] = qHTS of pediatric cancer cell lines to identify multiple opportunities for drug repurposing: Confirmatory screen for BT-37 cells (AID 1347117); note: nearly all actives have a fitted effect of over 55% in size
Summary of the method: as §4

[11] = qHTS of pediatric cancer cell lines to identify multiple opportunities for drug repurposing: Confirmatory screen for Rh41 cells (AID 1347123); note: nearly all actives have a fitted effect of over 60% in size
Summary of the method: as §4

CP237 = test: qHTS profiling for inhibitors of Plasmodium falciparum proliferation (AID 504749); note: nearly all actives have a fitted effect of over 60% in size; details: P. falciparum in erythrocytes, SYBR Green DNA, 72 h; series mostly up to 28.7 µM
Summary of the method: as §1

CP325 = test: as above; details: P. falciparum in erythrocytes, SYBR Green DNA, 72 h; series mostly up to 28.7 µM
Summary of the method: as §1

DIV14 = test: as above; details: P. falciparum in erythrocytes, SYBR Green DNA, 72 h; series mostly up to 28.7 µM
Summary of the method: as §1

MCC-13 = test: qHTS assay to identify novel small-molecules to repurpose for Merkel cell carcinoma treatment (AID 1296009); details: MCC and control cell lines, CellTiter-Glo viability, 72 h; series mostly up to 46 µM; note: nearly all actives have a fitted effect of over 60% in size
Summary of the method: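 CellTiter-Glo luminescence after 72 hr compound exposure at 37 degree celsius gave cell viability. Libraries NPC and MIPE were run as 8- and 11-point dose responses; RLUs normalized to DMSO (negative) and no-cell (cytotoxicity) controls.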

[12] = qHTS of pediatric cancer cell lines to identify multiple opportunities for drug repurposing: Confirmatory screen for Rh30 cells (AID 1347126); note: nearly all actives have a fitted effect of over 55% in size
Summary of the method: as §4

[13] = Quantitative High-Throughput drug screen in 47 multiple myeloma cell lines against the NCATS MIPE library collection: XG6_PLB cell viability assay (AID 1919865); details: XG6 myeloma viability, CellTiter-Glo ATP luminescence, 48 h; series mostly up to 45.8 µM; note: nearly all actives have a fitted effect of over 40% in size
Summary of the method: as §3

[14] = target: Cytochrome P450 3A4 (Homo sapiens) (UniProt P08684); test: Cytochrome P450 family 3 subfamily A member 4 (CYP3A4) small molecule antagonists: luciferase qHTS assay (AID 1645841; active = well fitted curve in the direction sought with a large enough effect in the repeat runs; inconclusive = weak or mixed curves; inactive = no such curve, though single readings can be large; an effect the other way counts as inactive or inconclusive; note: nearly all actives have a fitted effect of over 45% in size)
Summary of the method: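 P450-Glo CYP3A4 enzyme with proluciferin substrate preincubated 10 min with compound at room temperature, then NADPH regeneration 1 h. Luciferin detection reagent added for 20 min; luminescence recorded. Ketoconazole positive control.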

[15] = qHTS of pediatric cancer cell lines to identify multiple opportunities for drug repurposing: Primary screen for TC32 cells (AID 1347089); note: nearly all actives have a fitted effect of over 60% in size
Summary of the method: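 Measured quantity: luminescence from CellTiter-Glo, reflecting metabolically active TC32 cells following 48 h of compound. Curves came straight from multi-point titrations, with 8 or 11 points in primary and 11 in confirmatory screening.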
Potency is the fitted concentration of half-maximal effect; tags give direction and shape of the fitted curve.

Chain of UniProt P08684 (P08684 whole entry, looked up): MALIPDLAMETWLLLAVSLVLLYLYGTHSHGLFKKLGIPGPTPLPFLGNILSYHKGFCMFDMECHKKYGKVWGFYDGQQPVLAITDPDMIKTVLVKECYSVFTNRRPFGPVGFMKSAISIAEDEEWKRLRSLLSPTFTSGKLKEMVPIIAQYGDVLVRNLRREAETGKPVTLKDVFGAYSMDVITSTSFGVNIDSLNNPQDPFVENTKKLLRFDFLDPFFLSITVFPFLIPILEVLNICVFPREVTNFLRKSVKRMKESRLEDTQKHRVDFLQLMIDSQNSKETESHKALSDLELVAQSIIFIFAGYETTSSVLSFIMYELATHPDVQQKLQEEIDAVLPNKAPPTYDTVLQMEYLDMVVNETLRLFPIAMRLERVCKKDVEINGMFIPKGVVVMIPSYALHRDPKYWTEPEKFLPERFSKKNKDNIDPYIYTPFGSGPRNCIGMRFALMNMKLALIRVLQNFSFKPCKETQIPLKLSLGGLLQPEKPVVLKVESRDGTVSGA

For `Cc1cc(CCCOc2c(C)cc(-c3noc(C(F)(F)F)n3)cc2C)on1`, the Potency [1] was inconclusive [inhibitor, partial curve, poor fit].

In the case of `O=C1C(O)=C(O)C(=O)C(O)=C1O`, the Potency (7G8) was inconclusive [inhibitor, single point].

With `C[C@]12CC[C@@H]3c4ccc(O)cc4CC[C@H]3[C@H]1CC[C@H]2O` the Potency [2] was inconclusive [cytotoxic, partial curve], the Potency [3] was inconclusive [cytotoxic, full curve] and the Potency [4] was inconclusive [cytotoxic, full curve]. The Potency [5] was inconclusive [cytotoxic, partial curve].

With `O=S(=O)(c1cccc2cnccc12)N1CCCNCC1` the Potency [4] was inconclusive [cytotoxic, single point], the Potency [6] was “inactive” and the Potency [7] was inconclusive [cytotoxic, partial curve, poor fit].

In the case of `COc1ccc(C[C@@H](C)[C@@H](C)Cc2ccc(OC)c(OC)c2)cc1OC`, the Potency [8] was inconclusive [cytotoxic, single point], the Potency [9] was inconclusive [cytotoxic, partial curve] and the Potency [10] was inconclusive [cytotoxic, single point]. The Potency [11] was inconclusive [cytotoxic, partial curve, poor fit], the Potency [2] was inconclusive [cytotoxic, full curve, poor fit] and the Potency [6] was active: 1.05 µM. For the same compound, the Potency [7] was inconclusive [cytotoxic, full curve, poor fit].

For `CCCNC(C)(C)COC(=O)c1ccccc1`, the Potency (CP237) was inconclusive [inhibitor, partial curve], the Potency (CP325) was “inactive” and the Potency (DIV14) was “inactive”.

In the case of `O=C(Nc1cccc(Nc2ncc(Br)c(NCCc3cnc[nH]3)n2)c1)N1CCCC1`, the Potency [2] was inconclusive [cytotoxic, full curve, poor fit], the Potency [3] was inconclusive [cytotoxic, partial curve, poor fit] and the Potency [4] was active: 7.43 µM. For the same compound, the Potency [5] was active: 23.5 µM and the Potency (MCC-13) was inconclusive [inhibitor, partial curve].

In the case of `CCC(C(=O)OCCOCCN(CC)CC)c1ccccc1` (stereo not drawn), the Potency (7G8) was inconclusive [inhibitor, partial curve], the Potency (CP237) was active: 11.2 µM and the Potency (DIV14) was inconclusive [inhibitor, partial curve].

In the case of `OCCNC1CCCc2c1[nH]c1ccc(-c3ccccc3)cc21` (stereo not drawn), the Potency [3] was active: 8.33 µM and the Potency [7] was active: 20.9 µM.

With `NC(=O)Nc1sc(-c2ccc(F)cc2)cc1C(N)=O` the Potency [9] was inconclusive [cytotoxic, partial curve, poor fit], the Potency [10] was inconclusive [cytotoxic, full curve] and the Potency [11] was inconclusive [cytotoxic, single point]. For the same compound, the Potency [12] was inconclusive [cytotoxic, partial curve, poor fit], the Potency [13] was active: 0.0105 µM and the Potency (MCC-13) was inconclusive [inhibitor, full curve].

With `COc1ccc(C(=O)c2ccccc2O)c(O)c1` the Potency (CP237) was inconclusive [inhibitor, single point] and the Potency (DIV14) was inconclusive [inhibitor, partial curve].

In the case of `OCC(O)CN1CCN(c2ccccc2)CC1` (stereo not drawn), the Potency [14] was “inactive” and the Potency (CP325) was “inactive”.

For `COc1ccc(-c2cc(C(O)C3CCCCN3)c3ccccc3n2)cc1` (stereo not drawn), the Potency [14] was inconclusive [falling, single point].

For `Cc1ccc(NC(=O)C2(c3ccc4c(c3)OC(F)(F)O4)CC2)nc1-c1cccc(C(=O)O)c1`, the Potency [15] was active: 0.234 µM, the Potency [8] was active: 10.4 µM and the Potency [10] was “inactive”. For the same compound, the Potency [11] was active: 8.27 µM, the Potency [2] was active: 0.0469 µM and the Potency [13] was active: 0.0662 µM. For the same compound, the Potency (MCC-13) was active: 1.18 µM.

For `CC(=O)OC[C@H]1O[C@@H](n2ncc(=O)[nH]c2=O)[C@H](OC(C)=O)[C@@H]1OC(C)=O`, the Potency [15] was inconclusive [cytotoxic, full curve] and the Potency (CP325) was “inactive”.

In the case of `CC(=O)Nc1ccc(NC(=S)NC(=O)c2ccc(C(C)(C)C)cc2)cc1`, the Potency (7G8) was active: 8.91 µM, the Potency (CP237) was inconclusive [inhibitor, single point] and the Potency (CP325) was “inactive”. The Potency (DIV14) was inconclusive [inhibitor, partial curve, poor fit].
